From ChEMBL document CHEMBL1201862, “PubChem BioAssay data set” (2004)
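Test compounds were applied to cells in 96-well plates for 48 hours at 5 doses. Here, GI50 denotes the concentration required for 50% inhibition of growth.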 Active and inactive are the calls of the source. No stated cut-off is given here; in the data, active = GI50 up to about 1.1 µM and inactive = higher.

system: NCI-H322M; assay: growth of human tumour cells (NCI), 48 h

**Q.** Which GI50 does the source give for `O=C(NNS(=O)(=O)c1ccccc1)c1cccnc1` here?
**A.** inactive: > 100 µM

**Q.** With `O=C1c2ccccc2C(=O)c2c(NC3CCCCC3)ccc(Nc3ccc(S(=O)(=O)O)cc3)c21` as the compound, how does the GI50 read?
**A.** inactive: 63.2 µM

**Q.** Which GI50 does the source give for `O=C1c2cc([N+](=O)[O-])ccc2-c2ccc3c4ccc5c6c(ccc(c7ccc1c2c73)c64)C(=O)c1cc([N+](=O)[O-])ccc1-5` here?
**A.** inactive: > 100 µM

**Q.** With `O=C(Cn1ccnc1[N+](=O)[O-])N(CCO)CCO` as the compound, how does the GI50 read?
**A.** inactive: > 250 µM

**Q.** For `COC(=O)NC1C(C)OC(OC2C/C=C(/C)C3C=CC4C(OC5CC(OC6CCC(OC7CC(O)C(OC8CCC(O)C(C)O8)C(C)O7)C(C)O6)C(OC(C)=O)C(C)O5)C(C)CC(C)C4C3(C)/C(O)=C3/C(=O)OC4(CC(C=O)=CC(O)C4/C=C\2C)C3=O)CC1(C)[N+](=O)[O-]` (stereo not given), which GI50 is on record?
**A.** inactive: 1.92 µM

**Q.** How did the GI50 turn out when `O=c1[nH]c2ccccc2c2nc3ccccc3n12` was run?
**A.** inactive: 44 µM

**Q.** Which GI50 does the source give for `c1ccc(C(/C(=N/c2ccc(Cc3ccc(/N=C(\C(c4ccccc4)c4ccccc4)N4CC4)cc3)cc2)N2CC2)c2ccccc2)cc1` here?
**A.** inactive: 17.9 µM

**Q.** With `CCN(CC)C(=O)Cn1c(C)cc2ccccc21` as the compound, how does the GI50 read?
**A.** inactive: > 100 µM

**Q.** How did the GI50 turn out when `C=C(C)[C@@]1(OC(=O)c2cc([N+](=O)[O-])cc([N+](=O)[O-])c2)C[C@@H]2CCCC[C@@H]21` was run?
**A.** inactive: > 100 µM

**Q.** With `CCOc1ccc(N2C(=O)/C(=C/c3ccc(N(CCC#N)CCC#N)cc3)N=C2c2cc([N+](=O)[O-])ccc2Cl)cc1` as the compound, how does the GI50 read?
**A.** inactive: 83.9 µM

**Q.** How did the GI50 turn out when `COc1cc([C@@H]2c3cc4c(cc3[C@@H](c3c(O)cc(O)c5c3O[C@H](c3ccc(O)c(O)c3)[C@H](OC(=O)c3cc(O)c(O)c(O)c3)C5)[C@H]3COC(=O)[C@H]23)OCO4)cc(OC)c1OC` was run?
**A.** inactive: 36.2 µM

**Q.** `CSC(=S)NN=C1CCCC1.CSC(=S)NN=C1CCCC1.[Zn+2]` was tested. Which GI50 did it give?
**A.** inactive: 16.2 µM

**Q.** `CC(=O)O[C@H]1[C@H](OC(C)=O)[C@@H](CN=[N+]=[N-])OCO[C@@H]1CN=[N+]=[N-]` was tested. Which GI50 did it give?
**A.** inactive: > 100 µM

**Q.** For `O=C1NCN(c2ccccc2)C12CCN(CCc1ccc3[nH]c(=S)[nH]c3c1)CC2`, which GI50 is on record?
**A.** inactive: 38.7 µM

**Q.** How did the GI50 turn out when `COc1c(C)c(OC)c(C(=O)CC(C)C)c(OC)c1C` was run?
**A.** inactive: > 100 µM

**Q.** How did the GI50 turn out when `CCCCc1nccc2c(C)c3[nH]c4ccccc4c3cc12` was run?
**A.** inactive: 4.88 µM

**Q.** Which GI50 does the source give for `CCOC(=O)C(=O)Nc1ccccc1C(C)C` here?
**A.** inactive: > 100 µM

**Q.** Which GI50 does the source give for `CC(C)c1cc2c(O)c(c1)Cc1cc(C(C)C)cc(c1O)Cc1cc(C(C)C)cc(c1O)Cc1cc(C(C)C)cc(c1O)Cc1cc(C(C)C)cc(c1O)Cc1cc(C(C)C)cc(c1O)C2` here?
**A.** inactive: > 100 µM

**Q.** With `CC(C)C(Nc1c2ccccc2[n+](C)c2ccccc12)C(=O)O` (stereo not given) as the compound, how does the GI50 read?
**A.** inactive: > 100 µM

**Q.** How did the GI50 turn out when `Cc1ccccc1NC(=O)C(=O)Cc1cnc2ccccc2n1` was run?
**A.** inactive: > 100 µM

**Q.** How did the GI50 turn out when `CC(=O)NC(Cc1ccc(O)cc1)C(=O)O` (stereo not given) was run?
**A.** inactive: > 100 µM

**Q.** For `CC(C)(C)c1cc([Si](C)(C)C)c(C#N)c([Si](C)(C)C)c1`, which GI50 is on record?
**A.** inactive: > 100 µM

**Q.** How did the GI50 turn out when `CC1(C)OC(=O)C(Cc2ccccc2)(Cc2ccccc2)C(=O)O1` was run?
**A.** inactive: > 100 µM

**Q.** With `Cc1ccc2c(c1)C(=S)N1CSCC1c1nncn1-2` (stereo not given) as the compound, how does the GI50 read?
**A.** inactive: > 100 µM

**Q.** With `CCCCCCCCCCOc1ccc(/N=N/c2nnc(-c3ccc(OCCCCC)cc3)s2)cc1` as the compound, how does the GI50 read?
**A.** inactive: > 100 µM

**Q.** For `Nc1cc2nc(-c3ccccc3)cn2cn1`, which GI50 is on record?
**A.** inactive: 37.5 µM

**Q.** For `NS(=O)(=O)c1ccc(NC(=O)c2cccc3c(Nc4ccc(S(N)(=O)=O)cc4)c4ccccc4nc23)cc1`, which GI50 is on record?
**A.** inactive: 32.8 µM

**Q.** `COC(=O)[C@@H]1CC(C(C[N+](=O)[O-])c2ccc(O[Si](C)(C)C(C)(C)C)cc2)C(=O)N1C(=O)OC(C)(C)C` (stereo not given in full) was tested. Which GI50 did it give?
**A.** inactive: > 100 µM

**Q.** `C=C1CN2CC(=C)CN(C1)CS(=O)(=O)N1CC(=C)CN(CC(=C)C1)S(=O)(=O)N1CC(=C)CN(CC(=C)C1)S(=O)(=O)C2` was tested. Which GI50 did it give?
**A.** inactive: 27.7 µM

**Q.** `CC(C)OP(=O)(OC(C)C)/C(=N/Nc1ccc([N+](=O)[O-])cc1)Nc1ccccc1` was tested. Which GI50 did it give?
**A.** inactive: 54.1 µM

**Q.** How did the GI50 turn out when `CNC(=O)OCCN1c2ccccc2Sc2ccccc21` was run?
**A.** inactive: > 100 µM

**Q.** Which GI50 does the source give for `ClCCN(CC#CCCCC#CCN(CCCl)CCCl)CCCl` here?
**A.** inactive: 16.9 µM

**Q.** Which GI50 does the source give for `COc1ccc(-n2c(C)nc3ccc(NC4OCC(OC(C)=O)C(OC(C)=O)C4OC(C)=O)cc3c2=O)cc1` (stereo not given) here?
**A.** inactive: > 100 µM

**Q.** Which GI50 does the source give for `CCOC(=O)C=C1CCC2(CC1)OCCO2` here?
**A.** inactive: > 100 µM

**Q.** For `COc1ccccc1NC(=S)N/N=C(/c1ccccc1)c1ccccn1`, which GI50 is on record?
**A.** active: 0.0267 µM

**Q.** How did the GI50 turn out when `O=C1c2ccccc2C(=O)N1CC(O)COc1cccc2ccccc12` (stereo not given) was run?
**A.** inactive: > 100 µM

**Q.** Which GI50 does the source give for `CSc1nc(-c2cc3c(c(SC)n2)CCCCC3)cc2c1CCCCC2` here?
**A.** inactive: > 100 µM

**Q.** With `COc1cc(CNC2=NCCC2)cc(OC)c1OC` as the compound, how does the GI50 read?
**A.** inactive: > 100 µM

**Q.** For `C/N=N/N(C)C(=O)NC`, which GI50 is on record?
**A.** inactive: > 100 µM

**Q.** How did the GI50 turn out when `NC(Cc1nnn[nH]1)C(=O)O` (stereo not given) was run?
**A.** inactive: > 100 µM

**Q.** Which GI50 does the source give for `O=C(Cn1c2ccc(Br)cc2c2nc3ccccc3nc21)NC1CCCCC1` here?
**A.** inactive: > 100 µM

**Q.** With `COc1cc(C(C)(C)C)c(OC(=O)/C=C/C(=O)O/C=C/[N+](=O)[O-])c(C(C)(C)C)c1` as the compound, how does the GI50 read?
**A.** inactive: > 100 µM

**Q.** With `C[n+]1ccccc1/C=C/c1ccc2c(c1)OCO2` as the compound, how does the GI50 read?
**A.** inactive: > 10 µM

**Q.** For `Cc1ccc2c(=O)c(-c3nnc(N)s3)c[nH]c2n1`, which GI50 is on record?
**A.** inactive: > 100 µM

**Q.** With `COc1cc2c(cc1OCCCC(=O)Nc1cc(C(=O)Nc3cc(C(=O)NCCCN(C)C)n(C)n3)n(C)n1)N=CC1CCCN1C2=O` (stereo not given) as the compound, how does the GI50 read?
**A.** inactive: > 100 µM

**Q.** For `N=c1c2c(=S)n(-c3ccccc3)c(=S)n(-c3ccccc3)c2nc(SCCN2CCOCC2)n1-c1ccccc1`, which GI50 is on record?
**A.** inactive: 2.36 µM

**Q.** `CC(C)(c1ccc(Oc2ccc(C#N)c(C#N)c2)cc1)c1ccc(Oc2ccc(C#N)c(C#N)c2)cc1` was tested. Which GI50 did it give?
**A.** inactive: > 10 µM

**Q.** For `CC1(C)CC2(CC(C)(C)N1O)NC(=O)OC2=O`, which GI50 is on record?
**A.** inactive: > 100 µM

**Q.** `NCCN1CCCCCc2ccccc21` was tested. Which GI50 did it give?
**A.** inactive: > 10 µM

**Q.** With `Cc1ccc(/C=C2\CCCC\C2=N\O)cc1` as the compound, how does the GI50 read?
**A.** inactive: 90.2 µM

**Q.** How did the GI50 turn out when `COc1cc2c(oc(=O)c3c4oc([Si](C)(C)C)cc4cc(OC)c23)c2cccc(O)c12` was run?
**A.** inactive: > 100 µM

**Q.** `CC1(C)CC23C(=O)N(c4ccccc4)C(Nc4ccccc4)=NC2=CC(C#N)=C(C#N)C3O1` (stereo not given) was tested. Which GI50 did it give?
**A.** inactive: 99.3 µM

**Q.** Which GI50 does the source give for `CN1CCc2c(sc3nc(Nc4ccccc4)n(N)c(=O)c23)C1` here?
**A.** inactive: > 100 µM

**Q.** For `Nc1ccccc1/N=N/c1c(S(=O)(=O)O)cc2cc(S(=O)(=O)O)cc(O)c2c1O`, which GI50 is on record?
**A.** inactive: > 100 µM

**Q.** Which GI50 does the source give for `O=C(O)CO/N=C1/C(=C2/C(=O)Nc3ccccc32)Nc2ccccc21` here?
**A.** inactive: 30.5 µM

**Q.** For `C=C1C(=O)OC2C3C(=C)[C@@H](OC(C)=O)CC3C(C)=CC(OC(=O)C(C)(O)C(C)OC(C)=O)[C@@H]12` (stereo not given in full), which GI50 is on record?
**A.** inactive: 36.1 µM

**Q.** `COc1cc(-c2c3c(cc4c2OCO4)[C@@H](Nc2ccc4c(c2)Cc2cc(N[C@@H]5c6cc7c(cc6C(c6cc(OC)c(O)c(OC)c6)[C@H]6C(=O)OC[C@H]56)OCO7)ccc2-4)[C@H]2COC(=O)[C@@H]2C3)cc(OC)c1O` (stereo not given in full) was tested. Which GI50 did it give?
**A.** inactive: 37.1 µM

**Q.** `C=C(C)C(CC=C(C)C)Cc1c(O)cc(OC)c2c1OC(c1ccc(O)cc1O)C(O)C2=O` (stereo not given) was tested. Which GI50 did it give?
**A.** inactive: 17.6 µM

**Q.** Which GI50 does the source give for `COc1ccc(Nc2nc(N)c(C(=O)c3ccc(Cl)cc3)s2)cc1` here?
**A.** active: 0.206 µM

**Q.** `CC(NC(=O)/C(C#N)=C/c1ccc2[nH]ccc2c1)c1ccccc1` (stereo not given) was tested. Which GI50 did it give?
**A.** inactive: 22.5 µM
